Data as given in paper PMC10135230.
These are yes or no findings as the source states them, for the method shown. In cells and extracts the contact can be indirect. Some binding calls cover weakened binding; strength is not graded here. For some assays here: Tags and fused reporters may be left off the sequences shown.

Chains of the proteins cited; added tags and fusions are not shown. Residues count along the entry.
UniProt O75460, residues 19-977: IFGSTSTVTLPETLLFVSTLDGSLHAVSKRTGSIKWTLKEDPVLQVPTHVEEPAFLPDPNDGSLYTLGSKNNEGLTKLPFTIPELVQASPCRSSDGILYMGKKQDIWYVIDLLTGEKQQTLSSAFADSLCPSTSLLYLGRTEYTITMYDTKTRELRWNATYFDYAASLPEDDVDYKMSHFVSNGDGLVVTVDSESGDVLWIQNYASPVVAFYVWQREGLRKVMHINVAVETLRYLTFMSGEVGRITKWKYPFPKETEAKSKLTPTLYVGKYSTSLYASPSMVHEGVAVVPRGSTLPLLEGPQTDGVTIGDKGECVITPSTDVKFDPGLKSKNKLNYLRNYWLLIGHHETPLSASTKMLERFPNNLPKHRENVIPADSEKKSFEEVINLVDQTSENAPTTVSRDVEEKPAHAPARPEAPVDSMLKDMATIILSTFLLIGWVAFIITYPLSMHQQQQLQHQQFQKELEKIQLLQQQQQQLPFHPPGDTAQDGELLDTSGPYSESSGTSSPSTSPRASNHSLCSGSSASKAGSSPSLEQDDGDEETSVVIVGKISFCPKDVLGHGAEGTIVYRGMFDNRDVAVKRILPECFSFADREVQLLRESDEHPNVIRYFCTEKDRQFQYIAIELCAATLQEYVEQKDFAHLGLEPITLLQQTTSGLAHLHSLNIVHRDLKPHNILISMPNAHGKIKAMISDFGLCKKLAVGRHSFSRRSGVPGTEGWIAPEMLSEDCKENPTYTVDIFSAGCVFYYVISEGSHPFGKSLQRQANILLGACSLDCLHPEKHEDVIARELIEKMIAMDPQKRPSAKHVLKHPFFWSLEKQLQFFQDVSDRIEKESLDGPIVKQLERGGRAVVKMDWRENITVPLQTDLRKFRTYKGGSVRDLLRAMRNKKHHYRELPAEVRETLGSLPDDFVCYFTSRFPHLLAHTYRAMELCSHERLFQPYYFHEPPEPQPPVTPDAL

Tests used:
[1] = molecular target: T1, Fortilin (translationally controlled tumor protein, TCTP), endogenous (human (endogenous in SH-SY5Y)) (UniProt P13693); test: co-IP; IP with anti-Fortilin antibody and protein A/G agarose beads from cell lysates (shRNA-NC and OTUD3 knockdown cells); HEPES lysis buffer (20 mM HEPES pH 7.2, 50 mM NaCl, 1 mM NaF, 0.5% Triton X-100), 4 °C; blots for IRE1α and OTUD3; endogenous proteins
T1 sequence: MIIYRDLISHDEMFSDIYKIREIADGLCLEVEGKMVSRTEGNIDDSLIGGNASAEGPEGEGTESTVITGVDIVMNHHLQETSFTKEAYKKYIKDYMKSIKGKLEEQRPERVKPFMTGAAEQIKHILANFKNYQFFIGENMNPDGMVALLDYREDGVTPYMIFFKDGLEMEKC

[2] = molecular target: inositol-requiring enzyme 1α (IRE1α), endogenous (human (endogenous in SH-SY5Y)) (UniProt O75460); test: co-IP; IP with anti-IRE1α antibody and protein A/G agarose beads from lysates of shRNA-NC and OTUD3 knockdown cells; HEPES lysis buffer (20 mM HEPES pH 7.2, 50 mM NaCl, 1 mM NaF, 0.5% Triton X-100), 4 °C; blots for Bip, Fortilin and OTUD3; endogenous proteins
Myc-Fortilin = molecular target: T2, Myc-Fortilin (UniProt P13693); test: co-IP; exogenous Co-IP of OTUD3 domain constructs with Fortilin in transfected cells; HEPES lysis buffer, protein A/G agarose beads, 4 °C
T2 sequence: T1 sequence

inositol-requiring enzyme 1α (IRE1α), endogenous (from UniProt O75460 19-977)
binding [1]: binds

B1: Fortilin (translationally controlled tumor protein, TCTP), endogenous (protein, UniProt P13693 1-172)
chain: T1 sequence
binding [2]: binds

B2: OTU domain-containing protein 3 (OTUD3), endogenous (enzyme, UniProt Q5T2D3 1-398)
chain: MSRKQAAKSRPGSGSRKAEAERKRDERAARRALAKERRNRPESGGGGGCEEEFVSFANQLQALGLKLREVPGDGNCLFRALGDQLEGHSRNHLKHRQETVDYMIKQREDFEPFVEDDIPFEKHVASLAKPGTFAGNDAIVAFARNHQLNVVIHQLNAPLWQIRGTEKSSVRELHIAYRYGEHYDSVRRINDNSEAPAHLQTDFQMLHQDESNKREKIKTKGMDSEDDLRDEVEDAVQKVCNATGCSDFNLIVQNLEAENYNIESAIIAVLRMNQGKRNNAEENLEPSGRVLKQCGPLWEEGGSGARIFGNQGLNEGRTENNKAQASPSEENKANKNQLAKVTNKQRREQQWMEKKKRQEERHRHKALESRGSHRDNNRSEAEANTQVTLVKTFAALNI
binding [2]: no binding | binding [1]: binds

B3: Flag-OTU (OTU domain of OTUD3) (domain or fragment, UniProt Q5T2D3 65-189)
chain: LKLREVPGDGNCLFRALGDQLEGHSRNHLKHRQETVDYMIKQREDFEPFVEDDIPFEKHVASLAKPGTFAGNDAIVAFARNHQLNVVIHQLNAPLWQIRGTEKSSVRELHIAYRYGEHYDSVRRI
binding (Myc-Fortilin): binds
